# Data reported in the antibiotic and cytotoxicity screens of Wong et al. (2023).
# Some of the results follow.
# What was measured:
# HSkMC = human skeletal muscle cells; experiment: cytotoxicity call (relative viability < 0.9); details: 10 µM
# HepG2 = experiment: cytotoxicity call (relative viability < 0.9); details: 10 µM
# S. aureus RN4220 = experiment: growth inhibition call (relative growth <= 0.2); details: 50 µM
SMILES,cytotoxicity call (HSkMC),cytotoxicity call (HepG2),growth inhibition call (S. aureus RN4220)
Cc1ccccc1S(=O)(=O)N1C[C@H](O)COC[C@H]2O[C@H](CC(=O)NCCc3ccncc3)CC[C@@H]21,inactive,inactive,inactive
C[C@H](CO)N1C[C@H](C)[C@@H](CN(C)Cc2ccc(C(F)(F)F)cc2)Oc2c(NC(=O)c3ccc(-c4nccs4)cc3)cccc2C1=O,inactive,inactive,inactive
C[C@H]1CN([C@@H](C)CO)C(=O)c2cc(Br)cnc2O[C@H]1CN(C)C(=O)c1ccc2c(c1)OCO2,inactive,inactive,inactive
CC(C)NC(=O)Nc1ccc2c(c1)C(=O)N([C@H](C)CO)C[C@H](C)[C@@H](CN(C)Cc1ccc(-c3ccccc3)cc1)O2,inactive,inactive,inactive
O=C(CN1C(=O)c2ccccc2C1=O)N1CCNCC1,inactive,inactive,inactive
Cc1noc(C)c1NC(=O)N(C)C[C@@H]1Oc2ccc(NS(=O)(=O)c3c(C)noc3C)cc2C(=O)N([C@H](C)CO)C[C@H]1C,inactive,inactive,inactive
C[C@@H]1CCCCO[C@@H](CN(C)C(=O)Nc2ccccc2)[C@H](C)CN([C@@H](C)CO)C(=O)c2cc(NC(=O)Nc3ccc4c(c3)OCO4)ccc2O1,inactive,inactive,inactive
CC(C)NC(=O)N(C)C[C@@H]1Oc2ccc(NC(=O)C3CCCCC3)cc2C(=O)N([C@@H](C)CO)C[C@H]1C,inactive,inactive,inactive
C[C@H]1CN([C@@H](C)CO)C(=O)c2cccc(NC(=O)c3nc4ccccc4s3)c2O[C@H]1CN(C)C(=O)Nc1ccc(F)cc1,inactive,inactive,inactive
COCC(=O)N1C[C@@H](C)[C@@H](OC)CN(C)C(=O)c2cc(NC(=O)Nc3ccccc3)ccc2OC[C@@H]1C,inactive,inactive,inactive
CCCN1C[C@@H](C)[C@@H](OC)CN(C)C(=O)c2ccc(NS(=O)(=O)c3cn(C)cn3)cc2OC[C@@H]1C,inactive,inactive,inactive
COc1ccccc1NC(=O)Nc1ccc2c(c1)OC[C@@H](C)N(Cc1ccccc1Cl)C[C@@H](C)[C@H](OC)CN(C)C2=O,inactive,inactive,inactive
COc1ccccc1C#Cc1ccc2c(c1)O[C@H](CN(C)Cc1ccncc1)[C@H](C)CN([C@@H](C)CO)S2(=O)=O,inactive,inactive,inactive
C[C@@H]1CCCCO[C@@H](CN(C)C(=O)Nc2ccccc2)[C@H](C)CN([C@@H](C)CO)C(=O)c2cc(NC(=O)NC3CCCCC3)ccc2O1,inactive,inactive,inactive
C[C@@H]1CCCCO[C@@H](CN(C)C(=O)Nc2cccc3ccccc23)[C@@H](C)CN([C@@H](C)CO)C(=O)c2cc(NS(=O)(=O)c3ccc(Cl)cc3)ccc2O1,inactive,inactive,inactive
CO[C@H]1CN(C)C(=O)c2cc(NC(=O)NC(C)C)ccc2OC[C@@H](C)N(Cc2ccc(-c3ccccn3)cc2)C[C@@H]1C,inactive,inactive,inactive
C[C@@H]1CN([C@H](C)CO)C(=O)Cc2cc(NS(=O)(=O)c3ccc(F)cc3)ccc2O[C@@H]1CN(C)S(=O)(=O)c1ccc(F)cc1,inactive,inactive,inactive
C[C@H]1CN([C@@H](C)CO)C(=O)c2cc(NS(C)(=O)=O)ccc2O[C@@H]1CN(C)S(C)(=O)=O,inactive,inactive,inactive
Cc1noc(C)c1S(=O)(=O)Nc1ccc2c(c1)C(=O)N([C@@H](C)CO)C[C@H](C)[C@@H](CN(C)C(=O)Nc1ccccc1)OCCCC[C@H](C)O2,inactive,inactive,inactive
Cc1ccccc1S(=O)(=O)N1C[C@@H](O)COC[C@@H]2O[C@H](CC(=O)N3CCOCC3)CC[C@H]21,inactive,inactive,inactive
Cc1ccc(S(=O)(=O)N(C)C[C@H]2Oc3ncc(C#CC4(O)CCCC4)cc3C(=O)N([C@H](C)CO)C[C@H]2C)cc1,inactive,inactive,inactive
O=C(C[C@H]1CC[C@H](NC(=O)CN2CCOCC2)[C@@H](CO)O1)NCc1cccc(F)c1,inactive,inactive,inactive
CC(C)NC(=O)N(C)C[C@H]1Oc2ccc(NC(=O)CCN3CCOCC3)cc2CC(=O)N([C@H](C)CO)C[C@H]1C,inactive,inactive,inactive
O=C(OCc1cccc(O)c1O[C@@H]1O[C@H](CO)[C@@H](O)[C@H](O)[C@H]1O)[C@]1(O)C(=O)[C@@H]2C=C[C@H]1c1c2ccc(O)c1O,inactive,inactive,inactive
C[C@H]1CN([C@@H](C)CO)C(=O)Cc2cc(NS(=O)(=O)c3ccc(F)cc3)ccc2O[C@@H]1CN(C)S(=O)(=O)c1ccccc1,inactive,inactive,inactive
C[C@@H]1CN([C@H](C)CO)C(=O)Cc2cc(NS(C)(=O)=O)ccc2O[C@H]1CN(C)C(=O)NC1CCCCC1,inactive,inactive,inactive
C[C@@H]1CN([C@H](C)CO)C(=O)c2cccc(NC(=O)C3CCCCC3)c2O[C@H]1CN(C)Cc1ccc(-c2ccccc2)cc1,inactive,inactive,inactive

SMILES,cytotoxicity call (HSkMC),cytotoxicity call (HepG2),growth inhibition call (S. aureus RN4220)
O=[N+]([O-])c1ccc(Oc2ccc(-c3ccccc3)cc2)cc1,inactive,active,inactive
C[C@@H]1CN([C@H](C)CO)S(=O)(=O)c2ccc(-c3ccc(C(=O)N(C)C)cc3)cc2O[C@H]1CN(C)C(=O)C1CC1,inactive,inactive,inactive
O=C1CN(N=Cc2ccc([N+](=O)[O-])o2)C(=O)N1,inactive,active,active
CC=CCC(C)C(O)C1C(=O)NC(CC)C(=O)N(C)CC(=O)N(C)C(CC(C)C)C(=O)NC(C(C)C)C(=O)N(C)C(CC(C)C)C(=O)NC(C)C(=O)NC(C)C(=O)N(C)C(CC(C)C)C(=O)N(C)C(CC(C)C)C(=O)N(C)C(C(C)C)C(=O)N1C (configuration not stated),inactive,active,inactive
C[C@H]1CN([C@@H](C)CO)C(=O)Cc2cc(NC(=O)Nc3cccc4ccccc34)ccc2O[C@@H]1CN(C)Cc1ccc(C(=O)Nc2ccccc2N)cc1,inactive,inactive,inactive
C[C@@H]1CN([C@@H](C)CO)C(=O)c2cc(NC(=O)C3CCCCC3)ccc2O[C@@H](C)CCCCO[C@H]1CN(C)S(=O)(=O)c1ccc(F)cc1,inactive,inactive,inactive
C[C@H](CO)N1C[C@H](C)[C@@H](CN(C)Cc2ccccc2)Oc2c(NC(=O)CCCCCC(=O)Nc3ccccc3N)cccc2C1=O,inactive,inactive,inactive
CC(C)n1c(C=CC(O)CC(O)CC(=O)[O-])c(-c2ccc(F)cc2)c2ccccc21.[Na+] (configuration not stated),inactive,active,inactive
COc1ccc2c3c([nH]c2c1)[C@@H](CO)N(C[C@]13CCN(CC1)C(=O)Nc1ccc(cc1)F)C(=O)c1ccc(cc1)F,inactive,inactive,inactive
C[C@H]1CN([C@@H](C)CO)C(=O)c2cccc(NC(=O)CCCCCC(=O)Nc3ccccc3N)c2O[C@H]1CN(C)C(=O)Nc1ccccc1,inactive,inactive,inactive
C[C@H](CO)N1C[C@H](C)[C@@H](CN(C)C(=O)Nc2ccc(C(F)(F)F)cc2)Oc2ccc(NC(=O)CCCCCC(=O)Nc3ccccc3N)cc2C1=O,inactive,inactive,inactive
C[C@H](CO)N1C[C@H](C)[C@@H](CN(C)S(=O)(=O)c2cn(C)cn2)Oc2c(NC(=O)CCCCCC(=O)Nc3ccccc3N)cccc2C1=O,inactive,inactive,inactive
C[C@H](CO)N1C[C@H](C)[C@H](CN(C)CC2CC2)Oc2ccc(NC(=O)CCN3CCOCC3)cc2CC1=O,inactive,inactive,inactive
C[C@H](CO)N1C[C@H](C)[C@H](CN(C)Cc2ccc(Cl)c(Cl)c2)Oc2c(NC(=O)Nc3ccc4c(c3)OCO4)cccc2C1=O,inactive,inactive,inactive
CN1C(=O)c2cc(NC(=O)Cc3cccs3)ccc2OC[C@H]2O[C@H](CC(=O)NCc3ccc(-c4ccccc4)cc3)CC[C@H]21,inactive,inactive,inactive
Cl.O=C1CN2Cc3c(ccc(Cl)c3Cl)N=C2N1,inactive,active,inactive
COc1ccc(CCNC(=O)[C@@]2(Sc3ccc(C)cc3)CC(=O)N(C3Cc4ccccc4C3)[C@@H]2c2ccc(CO)cc2I)cc1,inactive,inactive,inactive
COc1ccc(S(=O)(=O)Nc2ccc3c(c2)[C@H]2C[C@@H](CC(=O)NCC4CC4)O[C@H](CO)[C@H]2O3)cc1,inactive,inactive,inactive
C[C@@H]1CN([C@H](C)CO)C(=O)Cc2cc(NC(=O)C3CC3)ccc2O[C@H]1CN(C)S(=O)(=O)c1ccc(Cl)cc1,inactive,inactive,inactive
C[C@H](CO)N1C[C@H](C)[C@@H](CN(C)C(=O)c2cnccn2)Oc2ncc(C#CCC3CCCC3)cc2C1=O,inactive,inactive,inactive
COc1ccc(S(=O)(=O)N(C)C[C@H]2Oc3ccc(NS(=O)(=O)c4ccc(F)cc4)cc3CC(=O)N([C@@H](C)CO)C[C@@H]2C)cc1,inactive,inactive,inactive
C[C@H](CO)N1C[C@H](C)[C@H](CN(C)S(=O)(=O)c2ccc(F)cc2)Oc2ccc(NC(=O)c3ccncc3)cc2CC1=O,inactive,inactive,inactive
C[C@H](CO)N1C[C@H](C)[C@@H](CN(C)S(=O)(=O)c2ccccc2)Oc2c(NS(=O)(=O)c3ccccc3)cccc2C1=O,inactive,inactive,inactive
N=C(N)NCCCCNC(=N)N,inactive,active,inactive
Cc1nc(-c2cccc(F)c2)cs1,inactive,inactive,inactive
C[C@H](CO)N1C[C@H](C)[C@H](CN(C)C(=O)Nc2ccc3c(c2)OCO3)OCCCC[C@H](C)Oc2ccc(NS(=O)(=O)c3cccs3)cc2C1=O,inactive,inactive,inactive
CCCC(=O)Nc1ccc2c(c1)OC[C@H](C)N(S(=O)(=O)c1cn(C)cn1)C[C@@H](C)[C@@H](OC)CN(C)C2=O,inactive,inactive,inactive
